# Test results published in the supplement of paper PMC9135407.
# “And” between values parts separate entries of the source, which are not always exact repeats. Identical values can stand only once. Counter-ions that a name gives are not always drawn. Out of some 5,800 compounds screened, about 620 (11%) showed activity.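 Rule for the calls: active = score above a cut-off or among the top three wells of a plate; in these data no inactive exceeds 0.85.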 The entries are a selection whose mix differs from that of the whole data set.
# System: primary human hepatic stellate cells (donor 1)
# Test: scaled lipid accumulation score (0 = DMSO-like, 1 = nortriptyline-like); higher = stronger HSC inactivation (lipid re-accumulation), active = hit call of the paper
# Conditions: 48 h
# [1] = library stock concentration: 3.33 mM
# [2] = library stock concentration: 10 mM
# [3] = library stock concentration: 80 uM
# [4] = library stock concentration: 400 uM
# [5] = library stock concentration: 2 mM
smiles,measurement,setting,value
O=c1[nH]cnc2[nH]ncc12 [Allopurinol Sodium],scaled lipid accumulation score,[1],inactive: ≤ 0
same,scaled lipid accumulation score,[2],inactive: ≤ 0
CN1CCN(C2CCN(C(=O)Nc3cc(Oc4ccc(NC(=O)C5(C(=O)Nc6ccc(F)cc6)CC5)c(F)c4)ccn3)CC2)CC1 [Golvatinib (E7050)],scaled lipid accumulation score,[2],inactive: 0.429
C[N+](C)(C)CCO.[Cl-] [Choline chloride],scaled lipid accumulation score,[2],inactive: ≤ -0.027
same,scaled lipid accumulation score,library stock concentration: 14.3 mM,inactive: ≤ 0
C[N+](C)(C)CCO.[Cl-] [Choline Chloride],scaled lipid accumulation score,[1],inactive: ≤ 0
same,scaled lipid accumulation score,[2],inactive: 0.043
Cn1cc(-c2ccc3nnc(Sc4ccc5ncccc5c4)n3n2)cn1,scaled lipid accumulation score,[3],inactive: 0.027
same,scaled lipid accumulation score,[4],inactive: 0.012
same,scaled lipid accumulation score,[5],inactive: 0.018
same,scaled lipid accumulation score,[1],inactive: ≤ 0
same,scaled lipid accumulation score,[2],inactive: ≤ 0 and inactive: 0.041
Clc1ccc(Nc2nnc(Cc3ccncc3)c3ccccc23)cc1 [Vatalanib],scaled lipid accumulation score,library stock concentration: 5.8 mM,inactive: ≤ -0.006
Clc1ccc(Nc2nnc(Cc3ccncc3)c3ccccc23)cc1 [Vatalanib (PTK787) 2HCl],scaled lipid accumulation score,[1],inactive: ≤ 0
same,scaled lipid accumulation score,[2],inactive: ≤ 0
Cc1cc(O)c2c(c1)C(=O)c1cc(O)cc(O)c1C2=O [Emodin],scaled lipid accumulation score,[1],inactive: ≤ 0
same,scaled lipid accumulation score,[2],inactive: ≤ 0 and inactive: ≤ -0.07
O=C1NC(=O)/C(=C/c2cccc(C(F)(F)F)c2)S1,scaled lipid accumulation score,[4],inactive: ≤ -0.005
same,scaled lipid accumulation score,[5],inactive: ≤ -0.005
same,scaled lipid accumulation score,[1],inactive: ≤ -0.009
same,scaled lipid accumulation score,[2],inactive: 0.01 and inactive: ≤ -0.005
COC(=O)c1ccc2c(C(=Nc3ccc(N(C)C(=O)CN4CCN(C)CC4)cc3)c3ccccc3)c(O)[nH]c2c1,scaled lipid accumulation score,[3],inactive: 0.316
same,scaled lipid accumulation score,[4],inactive: 0.522
same,scaled lipid accumulation score,[5],inactive: 0.258
O=c1[nH]cnc2c1ncn2[C@H]1CC[C@@H](CO)O1 [Didanosine],scaled lipid accumulation score,,inactive: ≤ 0
CN(C/C=C/C#CC(C)(C)C)Cc1cccc2ccccc12 [Terbinafine hydrochloride],scaled lipid accumulation score,library stock concentration: 6.1 mM,inactive: ≤ 0
CN(C/C=C/C#CC(C)(C)C)Cc1cccc2ccccc12 [Terbinafine],scaled lipid accumulation score,[1],inactive: ≤ 0
same,scaled lipid accumulation score,[2],inactive: ≤ 0
CN(C/C=C/C#CC(C)(C)C)Cc1cccc2ccccc12,scaled lipid accumulation score,[2],inactive: ≤ 0
CN(C/C=C/C#CC(C)(C)C)Cc1cccc2ccccc12 [Terbinafine HCl],scaled lipid accumulation score,[1],inactive: ≤ 0
same,scaled lipid accumulation score,library stock concentration: 6.9 mM,inactive: ≤ -0.006
same,scaled lipid accumulation score,[2],inactive: ≤ 0
Nc1nc(O)c2ncn(CCC(CO)CO)c2n1,scaled lipid accumulation score,[2],inactive: ≤ 0
Nc1nc(O)c2ncn(CCC(CO)CO)c2n1 [Penciclovir],scaled lipid accumulation score,[1],inactive: ≤ 0
same,scaled lipid accumulation score,library stock concentration: 7.9 mM,inactive: ≤ 0
same,scaled lipid accumulation score,[2],inactive: ≤ -0.001
Fc1ccc([C@@H]2CCNC[C@H]2COc2ccc3c(c2)OCO3)cc1 [Paroxetine],scaled lipid accumulation score,[2],inactive: 0.634
Fc1ccc([C@@H]2CCNC[C@H]2COc2ccc3c(c2)OCO3)cc1 [Paroxetine hydrochloride],scaled lipid accumulation score,[2],inactive: 0.808
Fc1ccc([C@@H]2CCNC[C@H]2COc2ccc3c(c2)OCO3)cc1 [Paroxetine HCl],scaled lipid accumulation score,[2],inactive: 0.355
Fc1ccc([C@@H]2CCNC[C@H]2COc2ccc3c(c2)OCO3)cc1 [Paroxetine hydrochloride hemihydrate (MW = 374.83)],scaled lipid accumulation score,[2],inactive: 0.836
C[C@H]1COc2c(N3CCN(C)CC3)c(F)cc3c(=O)c(C(=O)O)cn1c23,scaled lipid accumulation score,[2],inactive: ≤ 0
C[C@H]1COc2c(N3CCN(C)CC3)c(F)cc3c(=O)c(C(=O)O)cn1c23 [Levofloxacin],scaled lipid accumulation score,[1],inactive: ≤ 0
same,scaled lipid accumulation score,[2],inactive: ≤ 0 and inactive: 0.019
CN(C)CCCN1c2ccccc2CCc2ccccc21 [Imipramine HCl],scaled lipid accumulation score,library stock concentration: 7.1 mM,inactive: 0.618
CN(C)CCCN1c2ccccc2CCc2ccccc21,scaled lipid accumulation score,[2],inactive: 0.493
CN(C)CCCN1c2ccccc2CCc2ccccc21 [Imipramine hydrochloride],scaled lipid accumulation score,,inactive: 0.652
same,scaled lipid accumulation score,library stock concentration: 6.3 mM,inactive: 0.714
same,scaled lipid accumulation score,[2],inactive: 0.59
Cc1cccc(C(=O)NCN2CCN(c3ccccc3C#N)CC2)c1,scaled lipid accumulation score,[2],inactive: 0.009
"Cc1cccc(C(=O)NCN2CCN(c3ccccc3C#N)CC2)c1 [PD 168,077 maleate]",scaled lipid accumulation score,[2],inactive: ≤ 0
CCC(=O)Nc1cccc(Oc2nc(Nc3ccc(N4CCN(C)CC4)cc3OC)ncc2Cl)c1,scaled lipid accumulation score,[2],active: 0.997
NC(CO)C(=O)NNCc1ccc(O)c(O)c1O (stereo unspecified) [Benserazide HCl],scaled lipid accumulation score,[1],inactive: ≤ 0
same,scaled lipid accumulation score,library stock concentration: 7.8 mM,inactive: ≤ -0.006
same,scaled lipid accumulation score,[2],inactive: ≤ 0
NC(CO)C(=O)NNCc1ccc(O)c(O)c1O (stereo unspecified) [Benserazide hydrochloride],scaled lipid accumulation score,,inactive: ≤ 0
same,scaled lipid accumulation score,library stock concentration: 6.8 mM,inactive: 0.015
same,scaled lipid accumulation score,[2],inactive: ≤ 0
NCCC[C@H](N)CC(=O)N[C@H]1CNC(=O)[C@H]([C@H]2C[C@H](O)NC(N)=N2)NC(=O)/C(=C/NC(N)=O)NC(=O)[C@H](CO)NC(=O)[C@H](CO)NC1=O [Viomycin sulfate],scaled lipid accumulation score,,inactive: ≤ 0
CCCC(=O)OCOC(=O)C1=C(C)NC(C)=C(C(=O)OC)C1c1cccc(Cl)c1Cl (stereo unspecified) [Clevidipine Butyrate],scaled lipid accumulation score,[1],inactive: ≤ 0
same,scaled lipid accumulation score,[2],inactive: ≤ 0
O=C1OC(CN2CCOCC2)CN1/N=C/c1ccc([N+](=O)[O-])o1 (stereo unspecified),scaled lipid accumulation score,[2],inactive: ≤ 0
O=C1OC(CN2CCOCC2)CN1/N=C/c1ccc([N+](=O)[O-])o1 (stereo unspecified) [Furaltadone hydrochloride],scaled lipid accumulation score,,inactive: ≤ 0
O=C1OC(CN2CCOCC2)CN1/N=C/c1ccc([N+](=O)[O-])o1 (stereo unspecified) [Furaltadone HCl],scaled lipid accumulation score,[1],inactive: ≤ 0
same,scaled lipid accumulation score,[2],inactive: ≤ -0.001
CC[n+]1c(-c2ccccc2)c2cc(N)ccc2c2ccc(N)cc21 [Homidium bromide],scaled lipid accumulation score,[2],inactive: 0.654
Cc1ccc(-c2c(-c3nn(C)c4ncnc(N5CC[C@H](N6CCCCC6)C5)c34)cnn2C)cc1,scaled lipid accumulation score,[1],inactive: ≤ 0
same,scaled lipid accumulation score,[2],inactive: 0.091
CCOC(=O)/C=C/[C@H](CC(C)C)NC(=O)[C@H](CO)NC(=O)[C@@H](NC(=O)c1cccc(O)c1C)C(C)C,scaled lipid accumulation score,library stock concentration: 1 mM,inactive: ≤ 0
COc1ccc(CCC(C)NC2CC(C)(C)NC(C)(C)C2)cc1 (stereo unspecified),scaled lipid accumulation score,[2],active: 0.998
O=C1c2c(O)cc(O)cc2O[C@H](c2cc(O)c(O)c(O)c2)[C@H]1O [Dihydromyricetin],scaled lipid accumulation score,[1],inactive: ≤ 0
same,scaled lipid accumulation score,[2],inactive: ≤ 0
